# From PubChem BioAssay AID1461 (National Center for Advancing Translational Sciences (NCATS), 2008)
# The whole screen tested about 220,000 compounds, of which about 2,300 (1%) were called active. Inconclusive means that the source gave no clear call. Such entries were picked first, then a sample of the others. The call rests on the fitted dose curve; in most records, active means well fitted inhibition curve with a large enough effect; inconclusive means small, poorly fitted or top-dose-only effect, or effect the other way; inactive means no such curve, though single readings can be large or run the other way. No potency is given beside an inconclusive call; the fits are too rough.
# Biological target: Neuropeptide S receptor (Homo sapiens) (UniProt Q6W5P4)
# Chain of UniProt Q6W5P4 (Q6W5P4 whole entry, looked up): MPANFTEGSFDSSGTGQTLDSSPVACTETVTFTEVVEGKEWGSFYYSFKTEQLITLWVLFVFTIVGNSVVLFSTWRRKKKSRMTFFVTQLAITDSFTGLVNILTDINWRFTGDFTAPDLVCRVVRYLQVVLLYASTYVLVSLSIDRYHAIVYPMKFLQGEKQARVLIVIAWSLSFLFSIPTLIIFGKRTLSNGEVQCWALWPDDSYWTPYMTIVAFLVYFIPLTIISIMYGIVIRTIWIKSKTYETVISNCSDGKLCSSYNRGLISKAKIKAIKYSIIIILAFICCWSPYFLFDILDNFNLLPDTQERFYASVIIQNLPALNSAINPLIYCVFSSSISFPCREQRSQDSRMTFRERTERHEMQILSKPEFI
# Experiment: qHTS Assay for Antagonists of the Neuropeptide S Receptor: cAMP Signal Transduction; further: nearly all actives have a fitted effect of over 50% in size
# Settings: CHO-NPSR cells, cAMP TR-FRET, antagonist mode; activity change, negative = inhibition: at 38.3 µM (top of the series) unless noted
# On the % scale 0 is the no-effect control and ±100 the full control effect; potency means the concentration at half of the fitted maximal effect; tags describe the fitted curve by direction and shape.
SMILES,"activity change, negative = inhibition",Potency
COc1ccc(NC(=O)CSc2nnc(-c3cccs3)n2C)cc1OC,inactive: 8.67% [at 46.1 µM],–
CC(C)(C)OC(=O)N1CCC(C(=O)N2CCCCCC2)CC1,inactive: -6.59% [at 46.1 µM],–
Cc1noc(C)c1COc1ccc(C(=O)OCC(=O)N2CC3(C)CC2CC(C)(C)C3)cc1 (centres undefined),–,"inconclusive [inhibitor, single point]"
CCC(CC)COC(=O)C(C#N)c1nc2ccccc2nc1N1CCN(CC)CC1 (centres undefined),–,"inconclusive [inhibitor, single point]"
NC1=NN=C(N2N=C(c3ccc(Br)cc3)CC2(O)C(F)(F)F)n2ncnc2C1 (centres undefined),–,"inconclusive [activator, partial curve]"
Cc1ccc(NC(=S)NC(=O)c2c(-c3ccccc3Cl)noc2C)cc1,–,"inconclusive [inhibitor, single point]"
O=C(Nc1ncnc2sc3c(c12)CCCCC3)c1ccco1,–,"inconclusive [inhibitor, single point]"
CCCCCc1cc(=O)oc2c(C(CCN3CCCC(C)C3)c3ccc(N(C)C)cc3)c(OC)cc(OC)c12 (centres undefined),–,"inconclusive [inhibitor, single point]"
c1ccc2c(CSCCc3ccncc3)cccc2c1,–,"inconclusive [inhibitor, single point]"
Cn1c(=O)c(Oc2cc(Cl)cc(Cl)c2)nc2ccccc21,–,"inconclusive [inhibitor, single point]"
COc1cc(/C=N/NC(=O)CCN2CCN(C(c3ccccc3)c3ccccc3)CC2)ccc1O,–,"inconclusive [inhibitor, single point]"
Cc1ccc(NC(=O)c2sc3nc4c(c(-c5ccco5)c3c2N)CCC4)cc1,–,"inconclusive [inhibitor, partial curve, poor fit]"
CCCc1nc(SCC(=O)N2CCC(Cc3ccccc3)CC2)c2c(=O)n(C)c(=O)n(C)c2n1,–,"inconclusive [inhibitor, single point]"
COc1ccc(C2C(C#N)=C(C)NC3=C2C(=O)c2ccccc23)cc1 (centres undefined),–,"inconclusive [inhibitor, full curve, poor fit]"
Cc1ccc(N2C(=O)CC(Sc3nc(-c4ccccc4)c4cc(Cl)ccc4n3)C2=O)c(C)c1 (centres undefined),inactive: 9.16%,–
Cc1ccccc1NC(=S)Nc1ccccn1,–,"inconclusive [activator, single point]"
CC1=C(CC(=O)c2ccccc2)C(=O)c2ccccc2C1=O,inactive: -2.6% [at 46.1 µM],–
COc1ccc(C(=O)COC(=O)C2CCN(S(=O)(=O)c3cccc4cccnc34)CC2)cc1,inactive: 19%,–
Cc1nn(Cc2ccccc2)c2c1C(c1ccco1)C(C#N)=C(N)O2 (centres undefined),inactive: -11.6% [at 46.1 µM],–
